Laboratory results taken from PubChem BioAssay AID743279 (National Center for Advancing Translational Sciences (NCATS), 2014).
The whole screen tested about 360,000 compounds, of which about 17,000 (4.7%) were called active. Inconclusive results, whose numbers are uncertain, are shown with a selection of clear calls. Rule as the data show it: active = activity change below about -50%; inconclusive = mostly about -30% to -49%; inactive = weaker than that.

Assay: qHTS for Inhibitors of Inflammasome Signaling: IL-1-beta AlphaLISA Primary Screen
Conditions: THP-1 LPS/ATP IL-1B secretion, 16 h; at 57.5 µM, hits give low values
How it was run: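 THP-1 cells pretreated 1 hr with compounds (up to 57.5 uM final), then stimulated with LPS (250 ng/mL final) plus ATP (1.25 mM final); secreted IL-1B measured by AlphaLISA after 16 hr, decreased signal indicating inhibition.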
% is scaled to controls: 0 for no effect and ±100 for the full control effect.

Structure (SMILES)	activity change
COc1ccc(C2c3ccc(O)cc3Oc3ncn(Cc4ccco4)c(=N)c32)cc1OC (stereo not drawn)	inconclusive: -38.8%
O=C(Nc1nc(COc2ccccc2)cs1)C1CCC1	inconclusive: -43.7%
CCOC(=O)N1C(=O)NC(=O)C1c1ccc(Cl)cc1 (stereo not drawn)	inactive: -0.0168%
Cc1cc(O)c(C(=O)/C=C/c2ccc(Cl)cc2)c(=O)o1	inconclusive: -32.9%
CC(=O)c1ccccc1NC(=O)COC(=O)c1c(C)nn(-c2ccccc2)c1C	inconclusive: -42.4%
O=C(c1ccc([N+](=O)[O-])s1)N1CCc2ccccc2C1	inconclusive: -33.3%
O=S(=O)(c1ccc(Cl)c(NC(=S)Nc2ccccc2N2CCOCC2)c1)N1CCOCC1	inactive: -15%
O=C(Nc1ccc(Cl)c(-c2nc3ccccc3[nH]2)c1)c1cccnc1	inconclusive: -34.7%
COc1ccc(CN2CCC(CO)(Cc3ccccc3C(F)(F)F)CC2)c(F)c1	inconclusive: -42.4%
CCC(=O)Nc1cccc(C(=O)/C=C/c2cccs2)c1	active: -94.5%
O=C(Nc1nccs1)c1ccc(CSc2nnnn2-c2ccccc2)cc1	inconclusive: -43%
C=C(C)C1CC=C(C)/C(=N/NC(=O)c2ccc(NC(=O)c3cccc(C)c3)cc2)C1 (stereo not drawn)	inactive: -20.5%
COc1ccc2[nH]cc(/C=C/C(=O)c3ccccc3)c2c1	active: -104%
CCN1CCN(C(c2cccs2)C(C)NC(=O)c2ccccc2F)CC1 (stereo not drawn)	inactive: 77%
Cc1cnc(C(=O)Oc2ccc(-c3ccccc3)cc2)cn1	inactive: 3.2%
O=C(Nc1ccccc1[N+](=O)[O-])c1ccc(S(=O)(=O)N2CCCC2)cc1	inconclusive: -37.6%
O=C(c1ccco1)N(CCCN1CCOCC1)c1nc(-c2ccc(Cl)cc2)cs1	inconclusive: -37.8%
CCOC(=O)c1c(NC(=O)c2ccc(N3C(=O)[C@@H]4[C@H](C3=O)[C@H]3C=C[C@@H]4C3)cc2)sc2c1CC(C)CC2 (stereo partly drawn)	active: -81.5%
O=C([C@H]1O[C@@H](n2ccc(=O)[nH]c2=O)[C@H](O)[C@@H]1O)N(CCC1=CCCCC1)CC1CC1	inactive: 9.38%
COc1ccc(S(=O)(=O)N2CCOCC2)cc1NC(=O)COc1cccnc1[N+](=O)[O-]	inconclusive: -35.3%
CC(C)(C)c1[nH]nc2c1C(c1cccnc1)C(C#N)=C(N)O2 (stereo not drawn)	inconclusive: -48.1%
COc1ccccc1N1CCN(/N=C/C=C\c2ccco2)CC1	inconclusive: -37.9%

Structure (SMILES)	activity change
O/C(=C\c1nc2ccccc2[nH]1)c1cccs1	inconclusive: -38%
Cc1cc(N=Nc2ccccc2)c(NCC(O)C(O)C(O)CO)cc1C (stereo not drawn)	inconclusive: -31.8%
COc1cc(NC(=O)c2ccccc2Cl)ccc1NC(=O)c1ccco1	inconclusive: -41.6%
Nc1ncc2c(n1)CCN(c1ccc([N+](=O)[O-])cc1)C2	inconclusive: -37.4%
COCCCNC(=O)C(C#N)c1nc2ccccc2nc1N1CCCC1 (stereo not drawn)	inactive: -5.84%
Cc1c(-c2ccccc2)nc2ccccc2c1C(=O)Nc1ccncc1	inconclusive: -48.2%
Oc1ccc(C[C@@H]2CNCCN2CCCCC2CCCCC2)cc1	inconclusive: -47.1%
COc1ccc(CNc2nc3ccccc3s2)cc1OC	inconclusive: -40%
CSCCC(C(=O)Nc1c(C)cccc1C)n1c(COc2ccc(C)cc2)nc2ccccc21 (stereo not drawn)	active: -57.7%
OC(CON=C1c2ccccc2-c2ccccc21)CN1CCNCC1 (stereo not drawn)	active: -88.2%
Fc1ccc(F)c(CNc2ncnc3cc(Cl)ccc23)c1	inconclusive: -41.4%
COc1ccc(CSCC(=O)N/N=C/c2ccccc2OCc2ccccc2)cc1	inconclusive: -33.9%
Fc1ccc(/C=N/Nc2nc3ccccc3[nH]2)cc1F	inconclusive: -38.8%
Nc1cc(OC(=O)c2c(F)cccc2Cl)nn1S(=O)(=O)c1ccccc1	active: -93.5%
COc1cc2c(cc1OC)/C(=C/C(=O)c1ccc(OC)c([N+](=O)[O-])c1)NCC2	inconclusive: -30.4%
COc1cc2ccccc2ccc1=NO	inconclusive: -39.2%
CCC(C)Sc1cccc(-c2nc3ccccn3c2NCc2ccccc2)c1 (stereo not drawn)	inconclusive: -33.2%
COc1ccc(N(C(=O)CCl)C(C(=O)NC2CCCCC2)c2cccnc2)cc1 (stereo not drawn)	active: -102%
COc1ccc(CCNS(=O)(=O)c2ccc(S(=O)(=O)N3CCCC3)cc2)cc1OC	inactive: -8.03%
CCc1ccc(Cn2nnc(C(=O)Nc3ccc(OC)cc3OC)c2N)cc1	inactive: 13.7%
O=C(/C=C/c1cccc([N+](=O)[O-])c1)NCCSCc1c(Cl)cccc1Cl	inconclusive: -31.1%
CSc1nc2cc(S(=O)(=O)N3CCCCC3)ccc2s1	inactive: -17.3%

Structure (SMILES)	activity change
O=C1C(Cl)=C(NCCN2CCOCC2)C(=O)c2ccccc21	active: -95.8%
Cc1ccc(NC(=O)C2CC(=O)N(Cc3ccccc3)C2)cc1S(=O)(=O)N1CCCCCC1 (stereo not drawn)	active: -52%
COc1ccc(Cn2c(C(C)C)nc3sc4ccccc4c(=O)c3c2=O)cc1	inconclusive: -46%
COc1cccc(CNc2nc(NCC3CC3)nc3ccsc23)c1OC	active: -101%
O=C(COC(=O)CNC(=O)c1ccccc1)NC1CCCC1	inactive: 3.09%
COc1ccc(CS(=O)(=O)/C(Cl)=C(/Cl)C(=O)Nc2ccc(OC)nc2)cc1	active: -120%
C/C=C\C=C/C(=O)Nc1cccc(C2=NOC3(C2)C[C@@H](C(N)=O)N(C(=O)COc2ccc(Cl)cc2)C3)c1 (stereo partly drawn)	inconclusive: -46.8%
COc1cccc(OC)c1C(=O)Nc1cccc2c1CCCC2	inconclusive: -37.5%
Cc1cccc(C(=O)N2CC(=O)Nc3ccc(F)cc3C2c2ccc(F)cc2)c1 (stereo not drawn)	inactive: 26.4%
Cc1ccc(NC(=O)CN(C)CC(=O)Nc2cccc(F)c2)cc1[N+](=O)[O-]	inconclusive: -40.8%
O=C(N/N=C/c1c[nH]c2ccccc12)C1CC1(c1ccccc1)c1ccccc1 (stereo not drawn)	inconclusive: -48.4%
O=C(NCc1ccc2c(c1)OCO2)c1cc(-c2ccccc2)c(N2CCOCC2)s1	inconclusive: -31.2%
CC(=O)Nc1cc(NC(C)=O)c(N=Nc2ccccc2)cc1C	inconclusive: -31.2%
O=C(Nc1ccc(Br)cc1)Nc1ccccc1F	active: -66%
COC(=O)N/N=C(\C)c1ccc(OC(F)F)cc1	inactive: -9%
C=CCOC(=O)C1=C(C)NC(=O)NC1c1cc2c(cc1Br)OCO2 (stereo not drawn)	inactive: -11.7%
COc1cccc(/C=N/n2c(N)nc3ccccc32)c1OC	active: -68.3%
Cc1c(C(=O)N2CCOCC2)sc(NC(=O)c2ccc([N+](=O)[O-])cc2)c1C#N	inactive: 43.5%
COC(=O)N/N=C/c1cc(Cl)cc(Cl)c1OCc1ccc(F)cc1	inactive: -5.11%
CC(C)(C)CC(C)(C)NC(=S)N1CCN(Cc2ccc3c(c2)OCO3)CC1	inconclusive: -32.8%
COc1cccc(-c2cc3nc(-c4ccccc4)cc(N4CCCC(O)C4)n3n2)c1 (stereo not drawn)	inconclusive: -43.6%
COc1ccccc1NS(=O)(=O)c1ccc(C)c(C(=O)NCC2(N(C)C)CCCCC2)c1	inconclusive: -36.5%

Structure (SMILES)	activity change
COCCCN1C(=O)C(CC(=O)NCCc2ccccn2)CC(C(=O)N(C(C)C)C(C)C)=C1C (stereo not drawn)	inconclusive: -34.6%
COc1ccc(C(=O)CC(=O)C(=O)Nc2cc(C)ccc2C)cc1	inactive: 48.6%
FC(F)Oc1ccc(NC(=S)NCc2ccccc2)cc1Cl	active: -88.7%
COc1cc(-c2nn3c(C4CCCCC4)nnc3s2)cc(OC)c1OC	active: -50.8%
CN(C)CCN(C)Cc1c2ccccc2c(CN(C)CCN(C)C)c2ccccc12	active: -83.8%
CCOc1cccc2sc(N(CCCN(C)C)C(=O)c3ccc(C(=O)c4ccccc4)cc3)nc12	active: -87.7%
CCOC(=O)C1CCCN(C(=O)c2cc(-c3cccs3)oc2C)CC1 (stereo not drawn)	inconclusive: -39.8%
N#C/C=C/C(=C\Nc1ccc(Cl)cc1)S(=O)(=O)c1ccccc1	inconclusive: -33.4%
COc1ccc(-n2c(Cc3cc(=O)[nH]c(=O)[nH]3)nnc2SCC(=O)NC2CCCC2)cc1	inconclusive: -31.3%
CCCCOc1ccc(N(CC(=O)NCc2ccccc2)C(=O)c2csnn2)cc1	inactive: -8.66%
COc1ccc(C(C#N)=C2C=CC(=NO)C(C)=C2Cl)cc1	active: -82.1%
COc1ccccc1NS(=O)(=O)c1cc(NC(=O)c2ccc(Cl)nc2)ccc1Cl	active: -63.2%
COc1ccc(OCC(CO)N2CCN(c3ccccc3)CC2)cc1 (stereo not drawn)	inactive: -3.74%
CC(=O)C1=CCC(c2ccccc2F)N(S(=O)(=O)c2ccc(C)cc2)C1 (stereo not drawn)	inconclusive: -33.9%
Cc1nnnn1/C(=C\c1ccccc1)C(=O)OCC(=O)N1CC2(C)CC1CC(C)(C)C2 (stereo not drawn)	inconclusive: -43.9%
Cc1scc(C(=O)NCc2ccco2)c1-c1ccccc1	inactive: -5.15%
CCCCCCCn1c(=O)c(C(=O)OC)c(N)c2ccccc21	active: -58.8%
Cc1cc(N2CCN(c3nc(-c4ccc([N+](=O)[O-])cc4)cs3)CC2)c2ccccc2n1	inactive: -13.1%
Cc1ccc(C(=O)c2ccc([N+](=O)[O-])cc2)cc1C	inconclusive: -45.5%
COc1cc(/C=C2\C(=O)ON=C2c2ccc(Cl)cc2)ccc1O	active: -94.5%
c1cc(C2CCN(Cc3nc(-c4ccc5c(c4)OCO5)no3)CC2)ccn1	inactive: -25.5%
COc1cc(/C=C2\C=CC(=O)O2)cc(OC)c1	inconclusive: -37.1%
